# In PMC4336329 (PLoS ONE, 2015):
# Hit rate of the full screen: of about 310,000 compounds, about 2,200 (0.71%) showed an effect of 50% or more. Effects have a minus sign here. The list shows a part of the results.
# Target: human ether-à-go-go-related gene (hERG) potassium channel (human, UniProt Q12809)
# Test: primary screen, population patch clamp on CHO cells stably expressing hERG
# Sequence of human ether-à-go-go-related gene (hERG) potassium channel (Q12809 whole entry, looked up): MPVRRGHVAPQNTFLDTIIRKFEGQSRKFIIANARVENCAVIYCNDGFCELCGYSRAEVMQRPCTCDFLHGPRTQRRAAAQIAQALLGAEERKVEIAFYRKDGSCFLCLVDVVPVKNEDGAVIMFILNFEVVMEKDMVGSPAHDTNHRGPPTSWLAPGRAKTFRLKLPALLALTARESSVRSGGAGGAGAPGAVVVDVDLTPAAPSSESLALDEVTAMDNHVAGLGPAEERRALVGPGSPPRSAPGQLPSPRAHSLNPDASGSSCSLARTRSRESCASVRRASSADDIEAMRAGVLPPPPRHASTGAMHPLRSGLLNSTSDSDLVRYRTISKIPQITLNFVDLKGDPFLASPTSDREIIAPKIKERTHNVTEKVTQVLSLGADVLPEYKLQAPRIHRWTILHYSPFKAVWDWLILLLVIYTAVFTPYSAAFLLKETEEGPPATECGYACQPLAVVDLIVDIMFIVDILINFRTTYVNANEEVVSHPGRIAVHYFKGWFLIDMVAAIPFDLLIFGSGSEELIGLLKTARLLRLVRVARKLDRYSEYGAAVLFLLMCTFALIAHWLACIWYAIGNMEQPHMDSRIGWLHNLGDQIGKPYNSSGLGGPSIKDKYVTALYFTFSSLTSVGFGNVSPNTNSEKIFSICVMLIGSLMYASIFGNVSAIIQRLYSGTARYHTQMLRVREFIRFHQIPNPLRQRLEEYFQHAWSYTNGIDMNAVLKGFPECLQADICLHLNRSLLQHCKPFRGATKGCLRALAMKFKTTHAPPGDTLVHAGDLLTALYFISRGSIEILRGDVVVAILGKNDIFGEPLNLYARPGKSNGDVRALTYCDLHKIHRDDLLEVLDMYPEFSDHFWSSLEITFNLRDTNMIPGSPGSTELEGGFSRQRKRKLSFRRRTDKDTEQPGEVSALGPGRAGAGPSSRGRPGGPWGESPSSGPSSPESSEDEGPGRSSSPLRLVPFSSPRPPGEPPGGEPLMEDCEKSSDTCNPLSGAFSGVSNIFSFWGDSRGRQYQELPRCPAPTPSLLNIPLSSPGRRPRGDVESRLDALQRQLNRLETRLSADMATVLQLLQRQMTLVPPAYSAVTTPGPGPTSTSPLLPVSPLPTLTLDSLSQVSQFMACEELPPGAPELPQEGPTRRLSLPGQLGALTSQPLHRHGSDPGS
row,SMILES,"hERG current change (%, negative = inhibition) at 1uM"
1,Brc1ccc(-n2cnc(-c3ccccc3)c2)cc1,13.7%
2,CCCCN(C)C(=O)Cn1cnc2sc(C)cc2c1=O,14.6%
3,O=C(Nc1ccccc1)Nc1ccc(F)c([N+](=O)[O-])c1,7.72%
4,CCOc1ccc(NC(=O)CN(C)C(=O)c2ccc(-c3ccc(C(C)=O)cc3)o2)cc1OCC,10.5%
5,O=S(=O)(Nc1nc2ccccc2s1)c1cc(F)ccc1F,6.58%
6,CC(C)c1ccccc1OCCCN1CCCC1.O=C(O)C(=O)O,2.42%
7,COc1cc(C2Nc3ccccc3C(=O)N2c2ccccc2)ccc1O (stereo not shown),6.77%
8,CCOC(=O)C(C)n1nc(-c2ccccc2)c2ccccc2c1=O (stereo not shown),10.2%
9,O=C(/C=C/c1ccco1)OCc1nnc(-c2ccccc2)o1,11.9%
10,O=C(CSc1nc2ccccc2c(=O)n1C1CC1)NCc1ccccc1,-3.37%
11,O=C(O)c1cccc(NS(=O)(=O)c2ccc3nnn(O)c3c2)c1,8.32%
12,NC1=NS(=O)(=O)NC1c1ccc(Br)cc1 (stereo not shown),14.1%
13,N#C/C(=C\c1ccc(-c2ccccc2)o1)C(=O)Nn1cnnc1,6.84%
14,O=C(CN1CCN(S(=O)(=O)c2ccc(Cl)cc2)CC1)NCC1(N2CCOCC2)CCCCC1,-2.18%
15,Cc1ccccc1-c1ccc(=O)n(CC(=O)Nc2ccc(C(=O)N3CCCC3)cc2)n1,11.9%
16,O=C(COC(=O)c1cc(-c2cccnc2)nc2ccccc12)Nc1ccc(F)cc1F,9.34%
17,CN(CC(=O)NCc1ccco1)C(=O)C1CC(=O)N(c2ccc3c(c2)OCCO3)C1 (stereo not shown),7.67%
18,CC(=O)Nc1ccc(S(=O)(=O)NCC(=O)NCCCc2ccccc2)cc1,11.8%
19,CCOC(=O)c1ccc(N2C(=O)CC(N(C)CCc3ccc(OC)c(OC)c3)C2=O)cc1 (stereo not shown),4.1%
20,O=C1CN(C(=O)c2cc3ccccc3oc2=O)C(c2ccccc2)c2cc(F)ccc2N1 (stereo not shown),8.52%
21,COc1ccc(-c2cc(C(F)(F)F)nc(SCC(=O)NCc3cccs3)n2)cc1OC,1.61%
22,O=C(CC1C(=O)NCCN1C(=O)c1ccc([N+](=O)[O-])cc1)Nc1ccc(F)cc1 (stereo not shown),14.9%
23,COCCCNC(=O)/C=C/c1ccc(Cl)cc1,6.16%

row,SMILES,"hERG current change (%, negative = inhibition) at 1uM"
1,CC(C)(C#CCN1CCCCC1)OCCOC(c1ccccc1)c1ccccc1.Cl,5.74%
2,O=C(NCCc1ccccc1)c1ccc(CS(=O)Cc2ccc(Cl)cc2)o1 (stereo not shown),10.9%
3,O=S(=O)(Nc1nc2c(s1)CCCC2)c1ccc(F)cc1,-5.69%
4,O=C(Cc1ccc([N+](=O)[O-])cc1)N/N=C/c1ccco1,9.84%
5,COc1ccc(S(=O)(=O)NC2CC3CCC2C3)cc1Cl (stereo not shown),4.88%
6,S=C(Nc1ccccc1Cl)N(CCCN1CCOCC1)Cc1ccco1,6.53%
7,Cc1ccc(NC(=O)C23CCC(C)(C(=O)[C@H]2Br)C3(C)C)cc1 (stereo partly shown),8.48%
8,c1ccc(-n2ncc3c2ncn2nnnc32)cc1,12.7%
9,Cc1cc(C(=O)OCC(=O)NCCC(C)C)c2ccccc2n1,7.29%
10,Cc1ccc(C2(C(F)(F)F)NC(=O)N3CCN=C3S2)cc1 (stereo not shown),9.52%
11,O=C(CS(=O)(=O)c1ccccc1)Nc1ccc(Br)cn1,6.95%
12,Cc1cc(NC(=O)Nc2cc(F)ccc2F)no1,6.23%
13,CCN1CCN(C(c2cccs2)C(C)NC(=S)NC2CCCCC2)CC1 (stereo not shown),-5.14%
14,Cc1ccc(S(=O)(=O)N(C)S(=O)(=O)c2ccc(C#N)cc2)cc1,6.91%
15,CCOC(=O)COn1c(=O)c(C)[n+]([O-])c2ccccc21,8.8%
16,CC(C)OC(=O)c1c(NC(=O)Cn2cnc([N+](=O)[O-])n2)sc2c1CCCC2,6.78%
17,S=C1NCN(Cc2ccco2)CN1Cc1ccco1,12.7%
18,Fc1ccc(C[n+]2csc3ccccc32)cc1.[Br-],5.78%
19,COCCn1c(N)c(C(=O)NCC2CCCO2)c2nc3ccccc3nc21 (stereo not shown),6.59%
20,O=C(Nc1nccs1)c1cccc(S(=O)(=O)N2CCCC2)c1,12.4%
21,CCCCNc1c(-c2ccc(SC(C)CC)cc2)nc2ccccn12.O=C(O)C(F)(F)F (stereo not shown),4.34%
22,O=C(NCc1nnc(SCC(=O)N2CCN(c3ccccc3)CC2)o1)c1ccc(F)cc1,10.5%
23,Cc1cc(C(=O)CS(=O)(=O)c2ccccc2)cc(C)c1O,6.57%

row,SMILES,"hERG current change (%, negative = inhibition) at 1uM"
1,Cc1ccc(CN2CCNC(=O)C2CC(=O)N(C)CCc2ccccc2)cc1 (stereo not shown),0.424%
2,CC(=C1C(=O)c2ccccc2C1=O)N1CCc2ccccc2C1,-0.458%
3,Cc1ccccc1-c1nc(-c2cccnc2)no1,14.5%
4,CCCCSC1(SCCCC)N=C(N)C2(C#N)C(c3ccccc3)NC(C)=C(C)C12C#N (stereo not shown),0.597%
5,COC(=O)CN1C(=S)N(c2ccc(OC)cc2)C(=O)/C1=C/c1cccs1,22.5%
6,CCOc1cc([N+](=O)[O-])cc(/C=N/NC(=O)c2c(-c3ccccc3)noc2C)c1O,11.4%
7,CCOC(=O)c1ccc(N2C(=O)CC(N3CCN(C(=O)c4ccco4)CC3)C2=O)cc1 (stereo not shown),-5.28%
8,COc1ccc(CNC(=O)COC(=O)CC2CCCC2)cc1,21.6%
9,O=C(COc1ccc2ccccc2c1)N1CCN(c2ccccc2)CC1,22.2%
10,O=C(NNc1c(Cl)cc(Cl)cc1Cl)C1CCC1,-0.906%
11,COCc1[nH]nc2c1C(c1c(F)cccc1Cl)C(C#N)=C(N)O2 (stereo not shown),11.3%
12,N#C/C(=N\Nc1cccc(C(F)(F)F)c1)C(=O)c1ccsc1,9.69%
13,O=C(Nc1ccc(O)cc1)c1ccc(C(=O)c2ccccc2)o1,7.07%
14,CCOc1ccc(CNC(=O)CCC(=O)N2Cc3cccc(OC)c3Oc3ncccc32)cc1,6.34%
15,CCOc1ccc(C(=O)NCC(=O)OCc2cc(C(C)=O)ccc2OC)cc1,12.2%
16,CCCN(CC1CC1)C(=S)NC(=O)c1ccc(S(=O)(=O)N2CCOCC2)cc1,8.97%
17,CCN(CC)C(=S)NCCc1ccccc1,-1.37%
18,CCn1c(=O)cc(OCC(=O)NCCCN2CCCC2=O)c2ccccc21,16.7%
19,COc1ccccc1CN(C)C(=O)c1cccc(S(=O)(=O)N2CCCc3ccccc32)c1,4.34%
20,CC(C)Cn1c(-c2ccncc2)n[nH]c1=S,14.6%
21,O=C1C(=O)c2ccccc2C(O)=C1CCCCl,2.06%
22,COc1ccc(C)cc1NC(=O)CN1C(=O)c2ccccc2S1(=O)=O,3.98%
23,CCCN1CCN(CCCNC(=O)CCNC(=O)Cn2ccc3ccccc3c2=O)CC1,12.1%

row,SMILES,"hERG current change (%, negative = inhibition) at 1uM"
1,CC(=O)Nc1ccc(C(F)(F)F)cc1Cl,3.91%
2,O=C(N/C=C/c1ccco1)Nc1cccc(Cl)c1,9.45%
3,COc1ccc2cc(C=O)n(C)c2c1,4.79%
4,CN1C2C=C3C(C#N)=C(N)C(C#N)(C#N)[C@@H](c4ccc(Cl)cc4)[C@@H]3C1CC2 (stereo partly shown),-3.4%
5,Cc1cc(Br)ccc1SCC(=O)OCC(=O)Nc1ccccc1C#N,11.8%
6,Cc1ccc(S(=O)(=O)NCc2csc(-c3cccs3)n2)cc1,11.9%
7,Cc1nn(Cc2cccc(C(=O)Nn3cc([N+](=O)[O-])cn3)c2)c(C)c1[N+](=O)[O-],6.29%
8,C/C(=N\NC(=S)NCc1ccccc1)c1ccco1,9.96%
9,CC(C)C[C@H](NC(=O)c1nc[nH]c1C(=O)N(C)Cc1ccccc1)C(=O)OCc1ccccc1,13.1%
10,COCc1nnc(NC(=O)c2cccs2)s1,14.4%
11,COc1ccccc1C(=O)N(Cc1ccccc1)c1ccc(C)cc1,16%
12,CCOC(=O)Cc1ccc(NC(=O)c2ccccc2Br)cc1,6.73%
13,O=C(COC(=O)[C@H](Cc1c[nH]c2ccccc12)NC(=O)c1cccs1)NCc1ccccc1,-1.25%
14,Cc1cc(C)cc(C(=O)NCC(=O)OCC(=O)Nc2cccnc2Cl)c1,-3.31%
15,O=C(/C=C/c1cccs1)c1cc(Cl)ccc1O,13.3%
16,O=C(O)C(=O)O.c1ccc(-n2cccc2CNC2CCCCC2)cc1,-1.33%
17,CNC(=O)n1cc(C)c(-c2cccs2)n1,4.06%
18,CC1CC(C)CN(C(=S)Nc2ccc(SC(F)F)cc2)C1 (stereo not shown),-28.9%
19,CC(NS(=O)(=O)c1ccc2c(c1)OCCO2)c1ccccc1 (stereo not shown),6.11%
20,CC(=O)CSc1nnc2cc(C)c3ccccc3n12,14.9%
21,CCn1c(SCC(=O)N2CCN(c3ccccc3)CC2)nnc1-c1c[nH]c2ccccc12,-4.06%
22,C=CCN(Cc1nc(-c2ccc(OC)cc2)no1)C(=O)c1ccc2c(c1)OCO2,-1.66%
